According to paper PMC6919601, “Identification of Plasmodium dipeptidyl aminopeptidase allosteric inhibitors by high throughput screening” (PLoS ONE, 2019):
Among all 110,000 compounds or so, about 230 (0.21%) showed an effect of 50% or more. The list shows a part of the results.

target: DPAP1 (Plasmodium falciparum, UniProt Q8IIJ9); test: primary screen, percent inhibition; read by cleavage of a fluorogenic dipeptide substrate; higher = more effect of the substance; parameters: species or system P. falciparum D10 trophozoite lysates; single well
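Further: 30 min substrate incubation versus DMSO and 10 µM JCP410 controls.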

Sequence of DPAP1 (Q8IIJ9 whole entry, looked up): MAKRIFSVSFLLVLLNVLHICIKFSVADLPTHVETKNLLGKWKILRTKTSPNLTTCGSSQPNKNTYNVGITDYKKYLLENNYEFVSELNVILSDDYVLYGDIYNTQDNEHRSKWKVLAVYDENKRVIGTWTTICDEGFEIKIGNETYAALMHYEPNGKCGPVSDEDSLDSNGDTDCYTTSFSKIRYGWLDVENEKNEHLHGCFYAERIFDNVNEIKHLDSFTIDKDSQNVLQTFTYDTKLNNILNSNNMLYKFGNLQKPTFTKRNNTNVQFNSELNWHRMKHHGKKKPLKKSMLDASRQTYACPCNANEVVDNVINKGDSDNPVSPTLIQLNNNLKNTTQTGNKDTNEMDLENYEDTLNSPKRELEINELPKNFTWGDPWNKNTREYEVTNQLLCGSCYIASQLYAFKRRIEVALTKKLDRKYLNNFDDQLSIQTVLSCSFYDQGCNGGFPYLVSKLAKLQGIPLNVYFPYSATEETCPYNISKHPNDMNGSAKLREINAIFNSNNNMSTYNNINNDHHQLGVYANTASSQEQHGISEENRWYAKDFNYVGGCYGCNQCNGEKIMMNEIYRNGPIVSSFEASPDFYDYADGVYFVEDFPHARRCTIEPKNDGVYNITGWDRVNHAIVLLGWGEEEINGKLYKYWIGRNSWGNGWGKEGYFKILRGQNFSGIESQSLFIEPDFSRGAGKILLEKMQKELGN

| Compound | % Inhibition @ 10 uM [%] |
| --- | --- |
| COc1ccc(/C=C2\SC(=N)N(c3ccc(OC)cc3)C2=O)cc1 | 22.3 |
| O=C(c1nn2c(C(F)(F)F)cc(-c3ccccc3)nc2c1Br)N1CCOCC1 | -2.94 |
| C=CCc1cc(/C=C2/SC(=O)N(CC(=O)N3CCN(c4ccccc4)CC3)C2=O)cc(OC)c1O | -4.63 |
| COc1cc(C(=O)N(Cc2ccco2)Cc2ccccc2Cl)cc(OC)c1OC | -5.91 |
| COc1ccc(-c2cccc(C(CC(C)C)C(=O)NCC#N)c2)cc1[SH+](O)(O)N1CCN(CCO)CC1 (stereo not shown) | 1.7 |
| COCCN1C(=O)/C(=C/c2ccc(OC)cc2)S/C1=N\c1ccccc1 | -1.22 |
| Cc1ccc(CC2CC(=O)N(c3nc(C)cc(C)n3)C2=O)cc1 (stereo not shown) | 0.415 |
| Cc1ccsc1CN(C(=O)c1ccccc1)C1CCS(=O)(=O)C1 (stereo not shown) | -2.85 |
| CCC1CCC(N(C)C2CCN(C)CC2)CC1 (stereo not shown) | -1.21 |
| CC(NC(=O)Cc1ccccc1)c1ccc(Cl)c(Cl)c1 (stereo not shown) | 0.00773 |
| CN(C)c1ccc(-c2cc(-c3ccccc3)[nH]n2)cc1 | -1.91 |
| CC[C@H](C)[C@H](NC(=O)c1cccc(CN)c1)C(=O)N[C@@H](CCc1ccccc1)CNS(=O)(=O)c1ccc2oc3ccccc3c2c1 | 10.2 |
| COC(=O)c1cccc(-n2c(C)cc(/C=C3/NC(=O)N(Cc4ccc(F)cc4)C3=O)c2C)c1 | -3.33 |
| COC(=O)c1ccc(C2C=C(c3ccccc3)Nc3ncnn32)cc1 (stereo not shown) | -7.18 |
| Fc1ccc2c(c1)CN(c1ccccc1F)CO2 | -2.2 |
| O=C(Nc1ccc(Oc2ccccc2)cc1)c1ccc2c(c1)OCO2 | -0.545 |
| Cc1cc(-c2nnc(S)n2Cc2ccco2)n(C)n1 | 5.52 |
| Cc1noc(/C=C/N(C)C)c1S(=O)(=O)N(C)Cc1ccc2c(c1)OCO2 | 4.61 |
| NC(=O)C1CCCN(Cc2cc(F)ccc2F)C1 (stereo not shown) | -1.21 |
| Cc1c(Cc2ccccc2)c(=O)oc2cc(O)ccc12 | 2.6 |
| CCSc1sc(CC)cc1C1C2=C(O)CCCC2=NC(C)=C1C(=O)OC (stereo not shown) | -3.06 |
| Cc1ccc(OCCCN2CCCCC2)c(C(C)(C)C)c1 | 4.26 |

| Compound | % Inhibition @ 10 uM [%] |
| --- | --- |
| O=C(C1CCN(S(=O)(=O)c2ccc3[nH]c4c(c3c2)CCCCC4)CC1)N1CCc2ccccc2C1 | -1.7 |
| COc1ccccc1OCC(=O)Nc1ccc(Br)c(Cl)c1 | -2.19 |
| CC(=O)c1cccc(NC(=O)C(C)Oc2ccc(C(C)(C)C)cc2)c1 (stereo not shown) | 3.79 |
| CC(NC(=O)c1ccc(Br)o1)C1CC2CCC1C2 (stereo not shown) | 2.42 |
| Sc1nnc2c3c4c(sc3n3c(S)nnc3n12)CCCCC4 | 0.0069 |
| C=CCSc1nc(N)c(C#N)c(-c2ccccc2)c1C#N | 4.33 |
| Fc1c(F)c(F)c2c(N3CCOCC3)c3ccccc3nc2c1F | 7.16 |
| CCN1C(=O)N/C(=C\c2cc(C)n(-c3ccc(Br)cc3)c2C)C1=O | 2.73 |
| C=CCOc1c(CNc2nc[nH]n2)cccc1OC | 0.324 |
| COc1ccc(-n2cnc3ccccc32)cc1 | -4.03 |
| CCC(Oc1ccccc1)C(=O)Nc1cc(C)cc(C)c1 (stereo not shown) | -0.0938 |
| Cc1cc(C)c2c(n1)SCC(=O)N2CC(=O)NCCN(C)C1CCCCC1 | 1.03 |
| CC1=CC(=O)C=C(C)C1=NS(=O)(=O)c1ccccc1 | -0.053 |
| CCOc1ccc(/C=C2\N=C(c3cc(Br)ccc3OC)OC2=O)cc1 | 3.26 |
| CCN1CCCC1CNC(=O)Cn1ncc2c3ccccc3nc-2c1O (stereo not shown) | -1.71 |
| CC1(C)CC(=O)C2=C(C1)NC(=O)CC2c1ccccc1OCc1ccccc1 (stereo not shown) | -5.88 |
| Cc1cc(NC(=O)CN2CCN(C(=O)c3ccco3)CC2)c2ccccc2n1 | -9.29 |
| Cc1ccc(S(=O)(=O)c2nnn(-c3ccccc3C(F)(F)F)c2N)cc1 | -3.47 |
| Cc1ccnc2nc(NC(=O)Cc3ccccc3)nn12 | -4.91 |
| CCCN1C(=O)c2ccc(C(=O)Nc3ccccc3C(=O)O)cc2C1=O | -2.83 |
| O=c1[nH]c(=S)[nH]c2sc3c(c12)CCC1(CCCCC1)C3 | 5.93 |
| CC(NC(=O)Cc1cccs1)c1ccccc1 (stereo not shown) | -5.88 |

| Compound | % Inhibition @ 10 uM [%] |
| --- | --- |
| COc1ccc(-c2c(-c3ccccc3)s/c(=N\C(=O)c3cccnc3)n2C)cc1 | 5.97 |
| Cc1ccc2[nH]c(-c3ccc([N+](=O)[O-])cc3)nc2c1 | 1.13 |
| COc1ccc(-n2c(S)nnc2CNC(=O)c2ccc(S(=O)(=O)N(C)C)cc2)cc1 | 10.9 |
| CC(C)CC(C(=O)NCc1ccccc1)N1Cc2ccccc2C1=O (stereo not shown) | 0.0322 |
| CCC(C)NC(=O)Cn1nc(C)n2c(cc3c(OC)cccc32)c1=O (stereo not shown) | -1.7 |
| Cn1ncc(Br)c1C(=O)NCc1ccccc1 | 1.76 |
| COC(=O)C1=CNC=C(C(=O)OC)C1c1cc(Br)ccc1OC | -1.46 |
| CC(CCc1ccccc1)NC(=O)c1nnc(Cc2ccc(Cl)cc2)o1 (stereo not shown) | -2.8 |
| Cc1ccc(C)c(OCC(=O)Nc2cccnc2Cl)c1 | -6.92 |
| COc1ccc(Br)cc1CN1CCN(C(=O)c2ccccc2F)CC1 | 0.587 |
| COCCN(CCOC)c1ncnc2c1cnn2C | -0.247 |
| Cc1ccc(S(=O)(=O)Nc2cncc(C(=O)NCc3ccccc3)c2)cc1 | -0.546 |
| CCN(Cc1ccccc1)C(=O)C(NC(=O)C1CCC(C)CC1)C(C)C (stereo not shown) | -8.18 |
| CCC(N)C(=O)c1ccc(F)cc1 (stereo not shown) | -4.27 |
| Cc1ccccc1OCC(=O)Nc1ccccc1Br | -2.65 |
| O=C(c1ccc2nc(N3CCCCC3)sc2c1)N1CCC2(CC1)OCCO2 | 2.45 |
| Cc1c(C(=O)N(C)Cc2ccccc2)sc2ncn(CC(=O)N3CC(C)CC(C)C3)c(=O)c12 (stereo not shown) | -2.17 |
| Cc1c(N(C(=O)c2cc(-c3ccccc3)nc3ccccc23)C(C)C)c(=O)n(-c2ccccc2)n1C | 1.8 |
| CCN(CC)CCNC(=O)CCN1N=C(c2ccccc2)CCC1=O | -0.971 |
| C=CCSc1ncc(Cl)c(C(=O)NCCc2ccc(S(N)(=O)=O)cc2)n1 | -2.71 |
